Reference: article PMC2265268
Results are given in words; binding and its absence hold for the method and conditions named. In cells and extracts the contact can be indirect. Some entries that bind do so weakly or less than the wild type.

The chains behind the UniProt entries cited, without tags or fusion partners.
UniProt Q99LD4: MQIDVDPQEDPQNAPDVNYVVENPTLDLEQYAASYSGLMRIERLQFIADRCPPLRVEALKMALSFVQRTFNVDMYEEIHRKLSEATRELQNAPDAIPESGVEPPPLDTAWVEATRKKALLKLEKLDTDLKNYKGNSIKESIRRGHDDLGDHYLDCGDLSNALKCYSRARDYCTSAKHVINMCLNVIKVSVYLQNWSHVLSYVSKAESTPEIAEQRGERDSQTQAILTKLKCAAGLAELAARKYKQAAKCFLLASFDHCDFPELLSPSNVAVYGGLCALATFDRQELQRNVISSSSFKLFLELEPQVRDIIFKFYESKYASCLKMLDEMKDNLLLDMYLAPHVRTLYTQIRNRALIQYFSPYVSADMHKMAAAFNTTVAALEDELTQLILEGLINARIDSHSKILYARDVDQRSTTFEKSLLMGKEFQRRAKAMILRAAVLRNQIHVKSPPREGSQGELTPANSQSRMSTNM

Target: endogenous CSN1 (NIH3T3) (mouse (endogenous in NIH3T3)) (UniProt Q99LD4)
Test: co-IP; CSN1 immunoprecipitated from DRB treated NIH3T3 nuclear extract, pre-immune serum as control; blot for endogenous SAP130

B1: SAP130/SF3b-3 (endogenous, NIH3T3) (protein, UniProt Q921M3 1-1217)
chain: MFLYNLTLQRATGISFAIHGNFSGTKQQEIVVSRGKILELLRPDPNTGKVHTLLTVEVFGVIRSLMAFRLTGGTKDYIVVGSDSGRIVILEYQPSKNMFEKIHQETFGKSGCRRIVPGQFLAVDPKGRAVMISAIEKQKLVYILNRDAAARLTISSPLEAHKANTLVYHVVGVDVGFENPMFACLEMDYEEADNDPTGEAAANTQQTLTFYELDLGLNHVVRKYSEPLEEHGNFLITVPGGSDGPSGVLICSENYITYKNFGDQPDIRCPIPRRRNDLDDPERGMIFVCSATHKTKSMFFFLAQTEQGDIFKITLETDEDMVTEIRLKYFDTVPVAAAMCVLKTGFLFVASEFGNHYLYQIAHLGDDDEEPEFSSAMPLEEGDTFFFQPRPLKNLVLVDELDSLSPILFCQIADLANEDTPQLYVACGRGPRSSLRVLRHGLEVSEMAVSELPGNPNAVWTVRRHIEDEFDAYIIVSFVNATLVLSIGETVEEVTDSGFLGTTPTLSCSLLGDDALVQVYPDGIRHIRADKRVNEWKTPGKKTIVKCAVNQRQVVIALTGGELVYFEMDPSGQLNEYTERKEMSADVVCMSLANVPPGEQRSRFLAVGLVDNTVRIISLDPSDCLQPLSMQALPAQPESLCIVEMGGTEKQDELGERGSIGFLYLNIGLQNGVLLRTVLDPVTGDLSDTRTRYLGSRPVKLFRVRMQGQEAVLAMSSRSWLSYSYQSRFHLTPLSYETLEFASGFASEQCPEGIVAISTNTLRILALEKLGAVFNQVAFPLQYTPRKFVIHPESNNLIIIETDHNAYTEATKAQRKQQMAEEMVEAAGEDERELAAEMAAAFLNENLPESIFGAPKAGNGQWASVIRVMNPIQGNTLDLVQLEQNEAAFSVAVCRFSNTGEDWYVLVGVAKDLILSPRSVAGGFVYTYKLVNNGEKLEFLHKTPVEEVPAAIAPFQGRVLIGVGKLLRVYDLGKKKLLRKCENKHIANYISGIQTIGHRVIVSDVQESFIWVRYKRNENQLIIFADDTYPRWVTTASLLDYDTVAGADKFGNICVVRLPPNTNDEVDEDPTGNKALWDRGLLNGASQKAEVIMNYHVGETVLSLQKTTLIPGGSESLVYTTLSGGIGILVPFTSHEDHDFFQHVEMHLRSEHPPLCGRDHLSFRSYYFPVKNVIDGDLCEQFNSMEPNKQKNVSEELDRTPPEVSKKLEDIRTRYAF
  binding: binds weakly
